Laboratory results from paper PMC9842190 (Seminars in immunology, 2022).

Target: Human C3b, site-specifically biotinylated at its thioester cysteine (human, UniProt P01024 23-667; P01024 in part)
Assay: SPR

UniProt P01024, sequence (P01024 23-667, chain 1 of 2): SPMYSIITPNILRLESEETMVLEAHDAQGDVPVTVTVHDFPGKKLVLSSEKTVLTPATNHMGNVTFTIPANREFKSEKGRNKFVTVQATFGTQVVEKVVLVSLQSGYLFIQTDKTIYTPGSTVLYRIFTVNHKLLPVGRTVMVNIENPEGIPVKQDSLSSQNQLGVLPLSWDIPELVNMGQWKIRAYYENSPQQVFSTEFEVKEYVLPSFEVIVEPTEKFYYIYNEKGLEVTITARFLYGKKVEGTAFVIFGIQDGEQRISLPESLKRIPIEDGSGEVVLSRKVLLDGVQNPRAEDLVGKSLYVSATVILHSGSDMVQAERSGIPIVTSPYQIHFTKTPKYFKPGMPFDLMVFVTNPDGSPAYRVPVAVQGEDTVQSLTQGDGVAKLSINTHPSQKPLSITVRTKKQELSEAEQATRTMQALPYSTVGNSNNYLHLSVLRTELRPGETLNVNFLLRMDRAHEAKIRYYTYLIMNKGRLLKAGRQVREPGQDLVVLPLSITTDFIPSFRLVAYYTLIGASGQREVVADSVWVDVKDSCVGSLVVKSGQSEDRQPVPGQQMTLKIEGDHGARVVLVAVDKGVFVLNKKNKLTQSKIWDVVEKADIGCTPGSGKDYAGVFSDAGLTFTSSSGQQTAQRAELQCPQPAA
UniProt P01024, sequence (P01024 749-1663, chain 2 of 2): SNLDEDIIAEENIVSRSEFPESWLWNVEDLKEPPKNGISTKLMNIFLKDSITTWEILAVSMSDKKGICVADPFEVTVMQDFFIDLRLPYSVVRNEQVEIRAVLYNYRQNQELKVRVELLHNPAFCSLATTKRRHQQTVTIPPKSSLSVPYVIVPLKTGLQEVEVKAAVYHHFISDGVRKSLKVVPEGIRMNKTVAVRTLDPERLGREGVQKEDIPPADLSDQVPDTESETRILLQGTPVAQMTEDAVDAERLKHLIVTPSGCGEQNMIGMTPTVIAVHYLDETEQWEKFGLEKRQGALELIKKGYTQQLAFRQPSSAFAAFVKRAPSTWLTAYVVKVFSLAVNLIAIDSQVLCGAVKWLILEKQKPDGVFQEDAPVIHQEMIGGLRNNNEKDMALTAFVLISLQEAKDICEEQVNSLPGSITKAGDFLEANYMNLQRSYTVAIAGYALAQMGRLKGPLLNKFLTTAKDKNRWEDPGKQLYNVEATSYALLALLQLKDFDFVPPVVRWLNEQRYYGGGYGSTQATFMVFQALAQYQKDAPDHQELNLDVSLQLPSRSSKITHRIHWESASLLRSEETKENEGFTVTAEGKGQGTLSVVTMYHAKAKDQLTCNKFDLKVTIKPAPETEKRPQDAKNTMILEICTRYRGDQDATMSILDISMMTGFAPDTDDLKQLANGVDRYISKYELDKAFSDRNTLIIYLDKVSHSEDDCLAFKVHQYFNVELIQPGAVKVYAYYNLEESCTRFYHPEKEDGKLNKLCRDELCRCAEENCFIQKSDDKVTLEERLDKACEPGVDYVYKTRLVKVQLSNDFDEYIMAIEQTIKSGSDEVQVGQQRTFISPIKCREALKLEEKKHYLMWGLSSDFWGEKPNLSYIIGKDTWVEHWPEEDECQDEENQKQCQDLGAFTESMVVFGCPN

- binding result: binds
B1: Human Factor B (enzyme)
chain: TPWSLARPQGSCSLEGVEIKGGSFRLLQEGQALEYVCPSGFYPYPVQTRTCRSTGSWSTLKTQDQKTVRKAECRAIHCPRPHDFENGEYWPRSPYYNVSDEISFHCYDGYTLRGSANRTCQVNGRWSGQTAICDNGAGYCSNPGIPIGTRKVGSQYRLEDSVTYHCSRGLTLRGSQRRTCQEGGSWSGTEPSCQDSFMYDTPQEVAEAFLSSLTETIEGVDAEDGHGPGEQQKRKIVLDPSGSMNIYLVLDGSDSIGASNFTGAKKCLVNLIEKVASYGVKPRYGLVTYATYPKIWVKVSEADSSNADWVTKQLNEINYEDHKLKSGTNTKKALQAVYSMMSWPDDVPPEGWNRTRHVIILMTDGLHNMGGDPITVIDEIRDLLYIGKDRKNPREDYLDVYVFGVGPLVNQVNINALASKKDNEQHVFKVKDMENLEDVFYQMIDESQSLSLCGMVWEHRKGTDYHKQPWQAKISVIRPSKGHESCMGAVVSEYFVLTAAHCFTVDDKEHSIKVSVGGEKRDLEIEVVLFHPNYNINGKKEAGIPEFYDYDVALIKLKNKLKYGQTIRPICLPCTEGTTRALRLPPTTTCQQQKEELLPAQDIKALFVSEEEKKLTRKEVYIKNGDKKGSCERDAQYAPGYDKVKDISEVVTPRFLCTGGVSPYADPNTCRGDSGGPLIVHKRSRFIQVGVISWGVVDVCKNQKRQKQVPAHARDFHINLFQVLPWLKEKLQDEDLGFL
